Source: paper PMC4336329 (PLoS ONE, 2015)
About 14,000 (4.5%) of roughly 310,000 compounds showed an effect of 50% or more. Effects have a minus sign here. The list shows a part of the results.

The compounds below were run against human ether-à-go-go-related gene (hERG) potassium channel (human, UniProt Q12809) (assay: primary screen, population patch clamp on CHO cells stably expressing hERG).
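Further: peak tail current of the secondary pulse compared with the same well before compound.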

Sequence of human ether-à-go-go-related gene (hERG) potassium channel (Q12809 whole entry, looked up): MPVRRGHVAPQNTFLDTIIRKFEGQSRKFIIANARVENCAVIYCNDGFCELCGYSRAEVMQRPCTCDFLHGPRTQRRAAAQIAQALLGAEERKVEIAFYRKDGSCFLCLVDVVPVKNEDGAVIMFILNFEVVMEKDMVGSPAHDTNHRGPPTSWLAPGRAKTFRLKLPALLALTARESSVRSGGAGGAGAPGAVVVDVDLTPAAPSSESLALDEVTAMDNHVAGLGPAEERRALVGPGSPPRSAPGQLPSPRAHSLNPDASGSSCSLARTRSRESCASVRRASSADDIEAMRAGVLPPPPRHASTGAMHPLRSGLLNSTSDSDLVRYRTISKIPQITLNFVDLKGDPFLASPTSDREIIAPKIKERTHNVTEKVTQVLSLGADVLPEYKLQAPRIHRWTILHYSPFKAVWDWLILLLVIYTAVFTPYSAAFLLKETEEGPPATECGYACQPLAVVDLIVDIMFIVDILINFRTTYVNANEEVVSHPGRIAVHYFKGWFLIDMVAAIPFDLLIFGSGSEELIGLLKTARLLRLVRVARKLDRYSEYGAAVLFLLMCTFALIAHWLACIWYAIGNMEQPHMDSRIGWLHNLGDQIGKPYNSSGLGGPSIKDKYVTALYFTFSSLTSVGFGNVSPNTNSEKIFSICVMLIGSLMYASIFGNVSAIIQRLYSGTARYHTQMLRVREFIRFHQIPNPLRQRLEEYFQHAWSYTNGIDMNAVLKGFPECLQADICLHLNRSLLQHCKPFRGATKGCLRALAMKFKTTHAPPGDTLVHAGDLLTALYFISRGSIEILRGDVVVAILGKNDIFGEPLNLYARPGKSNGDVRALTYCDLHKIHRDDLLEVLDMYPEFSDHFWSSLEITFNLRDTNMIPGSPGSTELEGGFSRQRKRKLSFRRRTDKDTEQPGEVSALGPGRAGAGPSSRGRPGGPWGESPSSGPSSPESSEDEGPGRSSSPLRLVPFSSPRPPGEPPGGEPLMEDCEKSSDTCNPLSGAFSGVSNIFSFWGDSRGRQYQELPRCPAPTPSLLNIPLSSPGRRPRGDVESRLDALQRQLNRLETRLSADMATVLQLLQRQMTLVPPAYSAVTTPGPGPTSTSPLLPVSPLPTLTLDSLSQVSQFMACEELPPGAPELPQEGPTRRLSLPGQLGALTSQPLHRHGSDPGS

Structure (SMILES)	hERG current change (%, negative = inhibition) at 10uM [%]
C=CCNC(=O)/C=C/c1cccs1	16.4
Cc1ccccc1CN1CCCC(C(=O)Nc2ccccc2Oc2cccnc2)C1 (stereo not shown)	0.0346
Cc1ccc(C)c(S(=O)(=O)N2CCN(C(=O)c3ccc(OCc4c(C)noc4C)cc3)CC2)c1	-21.9
Nc1ccc(C(=O)N/N=C/c2cn(Cc3ccc(F)cc3)c3ccccc23)cc1	3.3
O=C(NCCCN1CCOCC1)c1cccc(S(=O)(=O)NCc2ccccc2)c1	-32
COc1ccc(F)cc1C(=O)C1CCCN(C(=O)CCc2ccccn2)C1 (stereo not shown)	2.48
CCCC(=O)NC(c1ccc2c(c1)OCO2)c1cc(Cl)c2cccnc2c1O (stereo not shown)	-1.58
CC1CCCN(C(=O)COC(=O)C2CCN(S(=O)(=O)c3c(Cl)cccc3Cl)CC2)C1 (stereo not shown)	-39.4
Cc1ccccc1NC(=O)COC(=O)c1cc(=O)c2ccccc2o1	-67.4
CC(C)Cn1cnc2c1c(=O)n(CC(=O)NC(=O)NC(C)(C)C)c(=O)n2Cc1ccccc1	5.69
Oc1c(C(c2ccccc2)N2CCN(Cc3ccccc3)CC2)sc2ncnn12 (stereo not shown)	-47.9
CCOC(=O)N1CCN(C(=O)C2CCN(c3nnc(-n4cccc4)s3)CC2)CC1	-57.1
Clc1ccc(-c2nnc(C3CCCCC3)o2)cc1	2.44
CC1(C)CC(=O)N(CC(=O)NCc2ccccc2)c2ccccc2S1(=O)=O	3.5
CCC(OC(C)=O)c1cc2c(cc1[N+](=O)[O-])OCCO2 (stereo not shown)	0.207
COCCN(C(=O)CNC(=O)c1ccco1)C(C(=O)NC1CCCC1)c1cccs1 (stereo not shown)	13.5
C(=N\Nc1nc(N2CCCC2)nc(N2CCCC2)n1)/c1ccccc1OCc1ccccc1	21
Cc1cccc(CSC2=CS(=O)(=O)c3ccccc3N2)c1	-9.07
CCNC(=O)NC(=O)COC(=O)CCCSc1nc2ccccc2s1	-8.6
Cc1c(Cl)cccc1NC(=O)Nc1cc(C(C)(C)C)on1	20.7
O=C(C1CCN(S(=O)(=O)c2cccc3nsnc23)CC1)N1CCc2ccccc21	-25.8
CCCNc1nc(C)cc(-c2cc(C(=O)NC3CCCC3)on2)n1	15.8

Structure (SMILES)	hERG current change (%, negative = inhibition) at 10uM [%]
COc1ccc(NC(=O)COc2ccc(/C=N/n3c(C)nnc3C)cc2OC)cc1	-25
O=C(CCn1c2c(c3ccccc31)CCCC2)NNC(=O)c1ccc(Cl)c([N+](=O)[O-])c1	-14.6
Cc1cccc(C(=O)Nc2ccc(C(=O)N/N=C/c3cccnc3)cc2)c1	6.76
CCOCC(=O)N1CCN(c2ccc(F)cc2)CC1	-15.9
O=C(O)c1ccccc1/C=N/Nc1ccc(S(=O)(=O)N2CCOCC2)cc1[N+](=O)[O-]	4.4
COCCN1CCN(Cc2cn[nH]c2-c2cc3ccccc3o2)CC1	-6.62
O=C(CCN1N=C(c2ccccc2)CCC1=O)NCC1CCCO1 (stereo not shown)	19
CC1=C/C(=C(/c2ccc(O)c(C)c2)c2ccccc2S(=O)(=O)[O-])C=CC1=O.[Na+]	3.9
CN(C(=S)Nc1ccc(Oc2ccccc2)cc1)C1CCCCC1	-9.37
CCC(Sc1n[nH]c(=O)[nH]c1=O)C(=O)OCc1ccccc1 (stereo not shown)	15.4
Cc1ccn2c(=O)nc(SCC(=O)N3CCN(c4ccccc4)CC3)nc2c1	-28.6
Cc1ccc2nc(C)cc(Nc3ccc([N+](=O)[O-])cc3)c2c1	-14.4
CCOc1ccc(Cl)cc1/C=N/NC(=O)c1ccccc1	2.86
O=C(Cn1cccc1C(=O)c1ccccc1)NCc1ccc(Cl)cc1	18.7
Brc1ccc2[nH]c3nc(SCCN4CCOCC4)nnc3c2c1.Cl	-5.08
CCn1cc(CNCc2ccc(OCC(O)CN(C)Cc3ccccc3)cc2)cn1 (stereo not shown)	9.9
CCS(=O)(=O)c1ccc(O)c(NC(=O)COc2ccccc2)c1	12.8
COc1ccc(N(CC(=O)NCc2ccccc2)S(=O)(=O)c2c(C)nn(C)c2C)cc1	-11.5
CC(NCC(=O)Nc1ccccc1C(=O)NC1CC1)c1ccc(F)cc1F (stereo not shown)	-32.4
COc1ccc(Cn2nnnc2C(c2cccs2)N2CCOCC2)cc1 (stereo not shown)	-3.21
Cc1ccc(S(=O)(=O)N(C)c2ccc(C(=O)N3CCC(C(N)=O)CC3)cc2)cc1	-0.944
CCOC(=O)N1CCC(Nc2nc3ccccc3n3nnnc23)CC1	-23.7

Structure (SMILES)	hERG current change (%, negative = inhibition) at 10uM [%]
COc1ccc(NC(=O)CN(C)C(=O)CCCSc2nc3ccccc3[nH]2)cc1	-22.7
c1ccc2c(c1)OCC(c1csc3ncnc(N4CCCCC4)c13)O2 (stereo not shown)	19
O=C(CSc1ccc(-c2ccc(Br)cc2)nn1)NCC1CCCO1 (stereo not shown)	3.65
COCCn1c(CN2CCN(c3ccccc3)CC2)nc2c1c(=O)n(C)c(=O)n2C	-13.8
CCCCCCC(=O)N1CCC(c2nc3c(nnn3Cc3ccccc3Cl)c(=O)[nH]2)CC1	-29.7
COc1ccccc1NC(=O)/C(=C/c1cccs1)NC(=O)c1ccco1	-33.1
CN1CCN(S(=O)(=O)Cc2ccc(Cl)cc2)CC1	-1.42
O=C1C2CC(O)CN2C(=S)N1Cc1ccccc1 (stereo not shown)	14.7
S=C1NC2=C(C(c3ccc(Br)cc3)N1)N1CCC2CC1 (stereo not shown)	-6.25
CCOc1ccc(CNC(=O)CN2C(=O)CSc3ccc(S(=O)(=O)N4CCOCC4)cc32)cc1OC	-17.7
CC(=O)Nc1ccc(NC(=O)CSc2ccccn2)cc1	-8.09
COc1ccc(S(=O)(=O)N2CCCC(C(=O)N3CCN(C)CC3)C2)cc1C (stereo not shown)	-2.79
CC(C)Cc1nc(Cl)c(C#N)c2c1CCCC2	13.3
Cc1cc(C)n2cc(CSc3nnnn3-c3ccccc3C)nc2n1	-58.3
COc1cscc1C(N)=O	16.1
COc1cccc(/C=N/n2c(C3CCCCC3)n[nH]c2=S)c1	16.8
Cc1ccccc1CC1(CO)CCCN(Cc2cn[nH]c2-c2ccccc2)C1 (stereo not shown)	-23.9
CC(=O)Nc1ccc(S(=O)(=O)NNC(=O)COc2ccc(C(C)(C)C)cc2)cc1	12.7
Cl.O=S1(=O)N=C(N(CCO)/N=C/c2ccncc2)c2ccccc21	-19.9
O=C(CCN1C(=O)COc2ccccc21)NCc1cccs1	-0.17
N#Cc1ccccc1Cn1c(=O)n(C2CCCC2)c(=O)c2ccccc21	-12.5
O=C(CSc1nnc(NC(=O)c2ccco2)s1)Nc1ccccc1Cl	22.1

Structure (SMILES)	hERG current change (%, negative = inhibition) at 10uM [%]
O=C(Sc1ccc(Cl)cc1)c1ccccn1	19.4
O=C(Nn1cnnc1)c1ccc(Cl)c(Cl)c1	-7.13
CCOC(=O)/C(C#N)=C/Nc1ccccc1NS(=O)(=O)c1ccc(C)c(C)c1	10.2
O=C(CCc1nc2ccccc2[nH]1)N1CCc2ccccc2C1	-32.1
C=C(CCC(=O)c1ccccc1)C(=O)c1ccccc1	7.85
NC(=O)CC(NC(=O)Cc1cccc2ccccc12)c1ccc(NCc2cc(F)ccc2F)c([N+](=O)[O-])c1 (stereo not shown)	14.4
Cc1cccc(OCCNC(=O)c2ccc(Oc3ccc(C(F)(F)F)cc3[N+](=O)[O-])cc2)c1	4.59
Cc1nnc(SCC(=O)N2CCN(c3cccc(Cl)c3)CC2)n1C1CC1	-20
CC(=O)NC(c1cccs1)c1cc(Cl)c2ccccc2c1O (stereo not shown)	-14.3
O=C1c2ccccc2C(=O)C1c1ccccc1	15.4
COc1ccc(NC(=O)CSc2nnc(NC(=O)c3ccc(S(=O)(=O)N4CCOCC4)cc3)s2)cc1	17.1
CCOC(=O)c1c(C)[nH]c(C(=O)C(C)Sc2ccc(Cl)cc2)c1C (stereo not shown)	6.93
Cn1c(=O)c2c(nc(SCC(=O)NCc3ccc4c(c3)OCO4)n2Cc2ccccc2)n(C)c1=O	-46.9
CCCc1ccc(O)c(N=Cc2cc(Br)cc(OCC)c2O)c1	-22
O=C1CCN(C(=S)NCCc2ccccc2)CC1	13.7
COc1cccc(OC)c1C(=O)NC(=O)NNc1cc(C(F)(F)F)cc(C)n1	15.7
CC1Cc2ccccc2N1C(=O)CSc1nnc(Cn2nnc3ccccc32)n1C (stereo not shown)	-12.8
CN1CCN(NC(=O)c2cc(Br)ccc2Cl)CC1	13.4
COc1ccc(CNC(=O)CCn2c(C)csc2=O)cc1	-1.34
COc1cccc(CN(C)C(=O)c2cc(-c3ccc(F)cc3)nc3ccccc23)c1	-1.11
N#C/C(=C\Nc1ccc(Cl)cn1)S(=O)(=O)c1ccccn1	11.2
CC1(C)OC(=O)C(=NNc2ccc(Br)cc2)C(=O)O1	7.12
